# In the supplement of paper PMC12217912:
# Some of the results follow. Sequences were assembled here from the parent chain. Inactive controls read about 0.05.
# B1: TEV protease; numbered along this chain (parent)
# chain: MGESLFKGPRDYNPISSSICHLTNESDGHTTSLYGIGFGPFIITNKHLFRRNNGTLVVQSLHGVFKVKDTTTLQQHLVDGRDMIIIRMPKDFPPFPQKLKFREPQREERICLVTTNFQTKSMSSMVSDTSCTFPSGDGIFWKHWIQTKDGQCGSPLVSTRDGFIVGIHSASNFTNTNNYFTSVPKNFMELLTNQEAQQWVSGWRLNADSVLWGGHKVFMVKPEEPFQPVKEATQL
# Variants of: B1
# Experiment: raw area under fraction-flipped curve 0-4 h after induction (AUC4h, not background-subtracted), DNA-recorder readout of cleavage of the substrate (dimensionless); higher = more cleavage of the substrate by the protease variant
# Settings: temperature: 34 °C; time window: 0-4 h after rhamnose induction
# 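Note: Bxb1 expression induced with 0.2% (w/v) L-rhamnose at OD600 near 0.5, cultures sampled hourly, flipped fraction per protease–substrate barcode pair counted by paired-end Illumina sequencing.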
Variant,area with substrate EGLYFQS,area with substrate EILYFQS,area with substrate EMLYFQS,area with substrate EVLYFQS,area with substrate EWLYFQS,area with substrate EYLYFQS,area with substrate EFLYFQS,area with substrate EKLYFQS,area with substrate EPLYFQS,area with substrate EQLYFQS
E103Y,0.106,0.0818,0.0905,0.0828,0.0745,0.115,,,,
I139N,0.165,0.0836,0.107,0.0829,,,0.0777,0.0958,0.098,0.143
K230G,0.0519,0.134,0.112,0.0888,0.11,0.0944,0.132,0.105,,0.116
M188C,,,,0.0895,,,,,,0.107
V229Y,,0.0797,,0.0828,0.0701,,,0.107,,0.125
V229L,0.124,0.0964,,0.0587,0.11,,0.117,0.122,,0.123
L61N,,0.0861,0.146,0.0994,,,,0.117,,0.0766
V126G,,0.114,,0.123,,,,0.119,,0.108
K68F,0.0832,,,,,,0.0823,,0.108,
S182W,,,,,0.038,0.052,,0.0664,,0.0479
V200E,0.061,0.0701,,0.0803,,,,,,
P222M,0.0732,0.0896,0.113,,0.0999,,0.0913,0.0965,0.0902,
T233S,0.111,,0.101,0.0886,,,,0.131,0.101,0.124
T233D,,,0.099,,,,0.094,,0.136,0.122
K216L,,,,,0.0804,,,,,
L191T,0.0785,0.074,0.068,0.0892,,,0.076,0.0796,0.0629,0.0898
N52I,,0.0607,0.0577,,,,0.0778,,,
T72P,,0.0769,,,0.0704,,0.127,0.075,,
H62N,,0.105,,,0.107,,,,,0.144
P94D,,0.106,0.119,,,,,,0.0904,0.124
E231M,0.096,0.0752,0.0954,0.0862,,0.0789,0.148,0.0981,0.125,0.107
E231G,,0.107,,0.0751,0.0919,,0.109,0.109,0.114,0.114
G138Q,0.0825,,,,,,,,,
G35L,,,,0.0483,0.022,,,,,0.0466
A232P,0.0908,,0.159,0.102,,,,,0.11,
L235M,0.101,0.071,0.062,0.106,0.0961,,,0.0909,,0.121
Q74H,,0.0842,,0.0863,,,,,,0.0951
N178I,,0.0777,,0.0615,0.0888,,,,,0.0783

# Same assay, conditions: temperature: 34 °C; time window: 0-4 h after rhamnose induction
Variant,area with substrate ERLYFQS,area with substrate ESLYFQS,area with substrate ETLYFQS,area with substrate EALYFQS,area with substrate ECLYFQS,area with substrate EDLYFQS,area with substrate EELYFQS,area with substrate EHLYFQS,area with substrate ELLYFQS
I139N,0.0904,0.108,0.107,,,,,,
K230G,0.0919,0.114,0.0882,0.0994,0.11,0.151,0.122,0.127,0.087
M188C,,0.0961,,,,,0.138,,0.0513
V229Y,0.0645,0.0887,0.127,0.112,0.0882,,0.0741,0.13,0.103
V229L,0.162,0.136,,0.143,0.0814,0.125,0.161,,0.111
L61N,0.0952,0.0795,0.114,,,,,0.1,0.0862
V126G,,0.136,,,,,0.118,,
K68F,,,0.0999,,,,,,
S182W,0.0583,0.0627,0.0423,,,,,0.0487,0.0625
V200E,0.0733,0.075,,,0.0588,,,,
P222M,,0.104,,,,,,0.0705,0.0866
T233S,,0.107,,0.115,0.0963,0.024,0.115,0.121,0.111
T233D,0.0998,0.114,,0.141,0.127,0.194,,,
K216L,0.0832,0.0993,,,0.0932,0.0618,,,0.0939
L191T,0.0826,0.054,,,,,,,0.0612
N52I,0.0547,,,,,,,,0.0761
T72P,,0.0999,0.0966,,0.0643,,,0.0809,
H62N,,0.118,0.128,,,,,,0.105
P94D,0.119,,,,,,,,
E231M,0.0926,,,0.0939,0.0612,,0.116,,
E231G,0.12,0.125,,0.112,0.109,0.117,0.121,0.107,0.0839
G138Q,0.133,,,,,,,,0.0947
G35L,,0.0502,,,,,,,
G35M,0.0421,,,,,,,,
A232P,0.0902,0.105,0.103,0.108,0.101,0.135,,,0.0981
L235M,0.0482,0.108,0.109,0.0843,0.0994,0.114,0.137,0.153,0.0766
Q74H,,0.0999,0.0989,,,,0.108,,
N178I,,,,,,,0.0768,,0.0936
